# In PubChem BioAssay AID652104 (National Center for Advancing Translational Sciences (NCATS), 2013):
# Hit rate of the full screen: of about 410,000 compounds, about 7,200 (1.8%) were called active. Inconclusive results, whose numbers are uncertain, are shown with a selection of clear calls. Calls come from the whole dose curve; as a rule, active = well fitted activation curve with a large enough effect; inconclusive = small, poorly fitted or top-dose-only effect, or another doubt; inactive = no such curve, though single readings can be large or run the other way. No potency is given beside an inconclusive call; the fits are too rough.
# Test: qHTS of TDP-43 Inhibitors; note: nearly all actives have a fitted effect of over 50% in size
# Settings: TDP-43 expressing yeast growth rescue, BacTiter-Glo, 24 h; series mostly up to 46.1 µM
# Summary of the method: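 In this qHTS, compounds that restore growth of yeast expressing TDP-43 appear as activators. Cells (OD600=0.02, galactose medium, raffinose-pregrown) are incubated with compound 24 hr at 30 deg C and growth is quantified by BacTiter-Glo.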
# Potency is the fitted concentration of half-maximal effect; tags give direction and shape of the fitted curve.
row,SMILES,Potency
1,COc1ccc(CNC(=O)C2COc3ccccc3O2)cc1 (stereo not given),"inconclusive [activator, single point]"
2,O=C(O)c1ccccc1Cc1ccc2c(c1)CCCC2,"inconclusive [activator, single point]"
3,Cc1nc2ccc(S(=O)(=O)N(C)CC(=O)Nc3ccc(C(C)C)cc3)cc2s1,inactive
4,CCCOC(=O)c1cccc(NC(=O)c2c(-c3ccccc3Cl)noc2C)c1,"inconclusive [activator, single point]"
5,Cc1cccc(NCc2ccc([N+](=O)[O-])s2)c1,"inconclusive [activator, single point]"
6,O=C(c1nnsc1S(=O)c1ccc(Cl)cc1)N1CCOCC1 (stereo not given),"inconclusive [activator, full curve]"
7,Cc1cc(OCC(=O)NC2CCCCC2)ccc1Cl,"inconclusive [activator, partial curve]"
8,Cc1cc2nc(-c3nnnn3-c3c(C)cccc3C)c(=O)[nH]c2cc1C,inactive
9,CCN(c1ccccc1)S(=O)(=O)c1c(C)nc2scc(C)n2c1=O,"inconclusive [activator, single point]"
10,Cc1ccc(Nc2nc(-c3ccncc3)cs2)cc1,"inconclusive [activator, full curve]"
11,COc1cccc(CC(=O)NCCCSc2ccccc2)c1,"inconclusive [activator, single point]"
12,O=C(C#Cc1ccccc1)Nc1cccc(F)c1,"inconclusive [activator, partial curve]"
13,O=C(Nc1cc(Cl)ccc1N1CCOCC1)c1ccc(=O)[nH]c1,"inconclusive [activator, single point]"
14,Fc1ccc(Nc2ncnc3sc4c(c23)CCC4)cc1,active: 17.8 µM
15,Cc1ccc(C)c(C(=O)CSc2nnnn2C(C)C)c1,"inconclusive [activator, partial curve, poor fit]"
16,COc1ccc(-c2noc(CN(C)Cc3ccccc3)n2)cc1,inactive
17,Cc1ccc(C2=N/C(=C/N3CCOCC3)C(=O)O2)cc1,"inconclusive [activator, partial curve]"
18,N#Cc1cccc(NC(=O)c2cc(C3CCCCN3C(=O)c3cccs3)on2)c1 (stereo not given),"inconclusive [activator, partial curve]"
19,CCc1cccc(C)c1NC(=O)CN1CCN(S(=O)(=O)c2ccc(C(C)(C)C)cc2)CC1,inactive
20,COc1ccc(CCN2C(=O)COc3ccccc3C2C(=O)NCc2ccccc2)cc1OC (stereo not given),"inconclusive [activator, full curve, poor fit]"
21,CCNc1nc(NCC)nc(N/N=C/c2ccc([N+](=O)[O-])o2)n1,"inconclusive [activator, partial curve]"
22,Cc1cc(C)n(-c2ccc(C(=O)OCC(=O)Nc3ccccc3F)cc2)n1,inactive
23,CCN1C[C@@H]2[C@@H]3C(=O)N(Cc4ccccc4)C(=O)[C@@H]3[C@](C)(C1=O)N2C(=O)c1ccc(F)cc1,inactive
24,COc1ccc(CNC(=O)c2cc(Nc3ccccc3C)nc3ccccc23)cc1,inactive

row,SMILES,Potency
1,Cc1ccccc1-c1cc2nc(NCc3ccccc3)n(C)c(=O)c2s1,"inconclusive [activator, single point]"
2,N#Cc1cccc(Cn2nnc(-c3ccccc3)n2)c1,"inconclusive [activator, single point]"
3,Cc1cc(C2=CC(=O)C[C@H](c3ccc(F)cc3)C2)ccc1F,active: 22.4 µM
4,CCOC(=O)CNC(=O)N1CCCC(Cc2ccccc2)(C(=O)OCC)C1 (stereo not given),"inconclusive [activator, partial curve]"
5,COc1ccc(OC)c(NC(=O)N2CCCc3ccccc32)c1,"inconclusive [activator, partial curve]"
6,CCOc1ccc(C(=O)Nc2ccc3nc(Nc4cccc(C(F)(F)F)c4)cc(C)c3c2)cc1OCC,"inconclusive [activator, full curve]"
7,CCCCCCOC(=O)c1ccccc1NC(=O)/C=C/C(=O)O,"inconclusive [activator, single point]"
8,Cn1c(COc2ccccc2Br)nc2ccccc21,"inconclusive [activator, single point]"
9,COc1ccc(-c2ccc(-c3noc(C)n3)c(OC)n2)cc1,inactive
10,CCOC(=O)c1c(NC(=O)CN2CCN(C(=O)c3ccco3)CC2)sc(C)c1C,"inconclusive [activator, partial curve]"
11,CN(CC(=O)Nc1ccccc1Cl)C(=O)CSc1nc2ccccc2s1,"inconclusive [activator, partial curve, poor fit]"
12,O=C(C[C@H]1C(=O)N(Cc2ccccc2)C[C@@H]1Cc1ccccc1)Nc1ccccc1,"inconclusive [activator, partial curve, poor fit]"
13,COc1ccc(-n2cc(-c3ccccc3)c3c(=O)[nH]cnc32)cc1,"inconclusive [activator, single point]"
14,O=[N+]([O-])c1ccc2c(c1)ncn2CCc1ccccc1,"inconclusive [activator, partial curve]"
15,N#Cc1ccc(-c2ccco2)nc1SCc1ccccc1,inactive
16,Cc1nn(-c2ccccc2)c(C)c1C(=O)Nc1nnc(-c2ccco2)o1,"inconclusive [activator, single point]"
17,CCOC(=O)Nc1cccc(Nc2ccccc2)c1,active: 14.1 µM
18,Cc1ccccc1NS(=O)(=O)c1ccc2[nH]cc(C(=O)NCCc3ccccc3)c(=O)c2c1,inactive
19,COC(=O)c1cnc(N2CCN(c3ccc(OC)cc3)CC2)c2ccccc12,"inconclusive [activator, single point]"
20,COc1ccc(CNC(=O)CC2C[C@H](C(=O)N3CCOCC3)[C@@]3(CCC4CCCC4)c4[nH]c5ccccc5c4CCN3C2=O)cc1OC (stereo not given in full),"inconclusive [activator, partial curve]"
21,CC(C)(C)c1ccc(C(=O)N2[C@H](COCc3ccccc3)C=CS2(=O)=O)cc1,"inconclusive [activator, partial curve]"
22,CCCCS/C(N)=N/N=C/c1cc(C)ccc1O,"inconclusive [activator, partial curve]"
23,CC(=O)N1N=C(c2ccc(Br)cc2)CC1c1cccc([N+](=O)[O-])c1 (stereo not given),"inconclusive [activator, partial curve]"
24,COC(=O)c1c(C#N)c(N)nc2c1CCCC2,inactive

row,SMILES,Potency
1,CC(=O)c1ccc(OCc2cc(C(=O)N3CCN(c4ccccc4)CC3C)no2)cc1 (stereo not given),"inconclusive [activator, single point]"
2,CN(c1ccccc1C(=O)Nc1ccc(CC#N)cc1)S(=O)(=O)c1ccccc1,inactive
3,Cc1cccc(NC(=O)c2cc([N+](=O)[O-])ccc2Cl)c1O,active: 22.4 µM
4,CCn1c(SCc2ccc(C)cc2)nnc1-c1cnccn1,active: 11.2 µM
5,Cc1nn(-c2ccccc2)c2nc(-c3cccs3)cc(C(=O)NN)c12,"inconclusive [activator, partial curve]"
6,COc1cccc(Nc2nc(-c3sc(NC(=O)c4ccccc4)nc3C)cs2)c1,"inconclusive [activator, partial curve]"
7,COC(=O)c1c(-c2ccc(F)cc2)csc1NC(=O)C1CCCO1 (stereo not given),"inconclusive [activator, single point]"
8,c1ccc(CCc2nc(-c3ccncc3)no2)cc1,"inconclusive [activator, single point]"
9,Cn1ncc2cc(NC(=S)NC(=O)c3ccccc3)ccc21,"inconclusive [activator, full curve]"
10,COCCn1c(C)cc(C(=O)CSc2ccc3ccccc3n2)c1C,"inconclusive [activator, single point]"
11,Cc1c(C=O)c2cc(OCc3ccccc3)ccc2n1C,"inconclusive [activator, single point]"
12,CCCN(CC(=O)Nc1ccccc1OC)C(=O)CC1CCCC1,inactive
13,O=C1CCc2cc(S(=O)(=O)NC(Cc3ccccc3)C(=O)NCCC3=CCCCC3)ccc2N1 (stereo not given),"inconclusive [activator, partial curve, poor fit]"
14,O=C(CC(Nc1ccccc1Cl)C(=O)OCC(=O)c1cccs1)c1ccccc1 (stereo not given),"inconclusive [activator, partial curve]"
15,CCOc1ccccc1-c1nc(-c2ccncc2)no1,active: 17.8 µM
16,CCCCc1ccc(NC(=O)CSc2nc3ccccc3nc2N2CCCCC2)cc1,inactive
17,CCOC(=O)c1ccc(NC(=O)CS(=O)(=O)Cc2nc(-c3ccc(C)cc3)oc2C)cc1,inactive
18,Oc1ccccc1/C=N/Nc1nccnc1Cl,"inconclusive [activator, single point]"
19,O=C(CSc1nc2ccccc2c(=O)n1CC1CCCO1)N1CCN(c2ccccc2)CC1 (stereo not given),"inconclusive [activator, single point]"
20,Cc1ccc(NC(=O)C(=O)NCC(c2cccnc2)N2CCN(Cc3ccccc3)CC2)cc1Cl (stereo not given),inactive
21,Cc1cnc(NC(=O)C2CCCC2)s1,"inconclusive [activator, single point]"
22,O=[N+]([O-])c1ccccc1SN(Cc1ccccc1)c1ccccn1,"inconclusive [activator, partial curve]"
